The other results are listed elsewhere or left out.
Tested on: T1, Caupolican (Caup) homeodomain DNA-binding domain
T1 sequence: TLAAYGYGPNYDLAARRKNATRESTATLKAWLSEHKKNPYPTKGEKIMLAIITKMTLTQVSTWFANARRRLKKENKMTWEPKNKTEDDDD
Test: PBM E-score (8-mer, recovered from the published 9-mer minima) (E-score (dimensionless, -0.5 to 0.5)); Drosophila protein; higher = stronger relative binding preference, active = 0.31 or more
How it was run: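 Caup's homeodomain DNA-binding domain (residues 214-303) was made by in vitro transcription and translation and applied at 100 nM to custom-designed protein binding microarrays. Each value is an enrichment score that gives relative binding preference for a short DNA word, with higher meaning stronger. The 8-mer values were recovered from published 9-mer scores, each of which was the minimum of its two constituent 8-mer scores. A cutoff of 0.31 marks candidate sites.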

Sequence | PBM E-score
ACCGCACT | inactive: -0.125
CCTATTTA | inactive: -0.0799
GCAAGTTA | inactive: 0.0766
GCTGCGAC | inactive: -0.133
CCCGTTGC | inactive: -0.134
CGCTCTTA | inactive: -0.0212
CTGACCCA | inactive: -0.11
GCGGCACC | inactive: -0.22
GCAGACGA | inactive: -0.00472
CCGTTAGA | inactive: -0.00338
CAACGTAG | inactive: 0.0374
ATACGACG | inactive: 0.13
TGTGCACA | inactive: 0.132
ATATTCCG | inactive: 0.0125
AAGTTAGC | inactive: 0.0975
CATAGTGC | inactive: 0.117
GGTTTGAA | inactive: 0.0279
CGCGGAGC | inactive: -0.249
GGGCTATA | inactive: -0.123
CGCAAGGA | inactive: -0.102
GTCCGAAA | inactive: 0.0444
ACACCCGT | inactive: 0.109
AGTGTGTC | inactive: 0.204
CCAGTCAG | inactive: -0.104
GCATGATA | inactive: 0.159

Sequence | PBM E-score
ATTAGAGA | inactive: 0.0176
CGAACAAG | inactive: 0.295
AAGGTGGT | inactive: 0.0307
ACGACAAT | inactive: 0.186
ACCACTAA | inactive: 0.15
AAGAGAAC | inactive: 0.0784
ATATGGGA | inactive: -0.00099
CCTAGCCA | inactive: -0.125
AAATTGAA | inactive: 0.116
GCACATTA | inactive: 0.107
AACTCGCA | inactive: 0.0477
AGGAGGGG | inactive: -0.228
CTCACGAA | inactive: 0.0184
AGCGGGTC | inactive: -0.215
GACAGAAA | inactive: 0.104
GACAGCAC | inactive: 0.0877
CCATGGAG | inactive: -0.0703
CAAAGAAG | inactive: -0.0488
CGAGAGTC | inactive: -0.123
AGTTGTAC | inactive: 0.308
AAGAACAG | inactive: 0.172
CGCAGCAG | inactive: -0.199
AGGCAGGA | ≥ -0.0476
GTGCCGAA | inactive: -0.0996
ATCTGTCC | inactive: 0.114

Sequence | PBM E-score
CGGCTTAC | inactive: -0.0622
AAGGAAAT | inactive: 0.0386
ACTCCTCT | inactive: -0.00759
ACTGATAA | inactive: 0.119
CTGGGCAC | inactive: -0.168
CATACTAA | inactive: 0.167
CTATTCTC | inactive: 0.0382
TAGAGATA | inactive: 0.0621
CCGACGTC | inactive: -0.202
ATGTAGGG | inactive: 0.129
AACCCCGT | inactive: -0.12
ACACTTAA | inactive: 0.197
CTTGCTAC | inactive: 0.151
ACTGGATA | ≥ 0.0929
AGTTAATG | inactive: 0.187
ACGTGGTC | inactive: 0.0208
TCTGCTAA | inactive: 0.0179
CCCACGCA | inactive: -0.21
ATTAATCC | inactive: 0.13
ACGTGGTA | inactive: 0.132
CAAAAAAG | inactive: 0.046
AAAGTATG | inactive: 0.124
CATCGCGC | inactive: -0.106
GCCTACGC | inactive: -0.053
CTCGCAAC | inactive: -0.00416

Sequence | PBM E-score
AATAATAG | inactive: 0.132
CTTGACGA | inactive: 0.0272
GATACCAA | inactive: 0.123
CGGGAGAG | inactive: -0.144
ACATTGCC | inactive: 0.105
CGAGTCGA | inactive: -0.00487
TCGTTTCA | inactive: 0.0308
AAACAGTC | inactive: -0.0421
CAGTATAA | inactive: 0.0774
GCCTAGAC | inactive: -0.11
GATACTCC | inactive: -0.017
AGCGAATC | inactive: 0.0333
GAGACACA | inactive: 0.167
AAAAACTA | inactive: 0.122
ACTTCAAC | inactive: 0.171
GTCGCCGA | inactive: -0.0224
GCAGTAAC | inactive: 0.0444
AACCCGTC | inactive: -0.0941
ATACTCTA | inactive: 0.092
CAGTAATG | inactive: 0.115
CGTGTGGA | inactive: -0.0862
TAGCCGAA | inactive: -0.0891
TACCGCTA | inactive: 0.068
TCACTAGA | inactive: 0.0014
CTTAGTCC | inactive: -0.0895

Sequence | PBM E-score
AGACACTC | inactive: -0.00058
AGAACCGC | inactive: -0.0708
AGTAACTA | inactive: 0.154
CAAATAAG | inactive: -0.0125
ACACCCAC | inactive: 0.0658
CCTCGGCC | inactive: -0.233
CGTTATAC | inactive: 0.0592
TTAAAGAA | inactive: 0.0808
CATCCGGC | inactive: -0.147
CATTCAAC | inactive: 0.0807
ATTAGATG | inactive: 0.235
CGGGCGCC | inactive: -0.242
ATGCCAGA | ≥ -0.00722
AGTTGGCC | inactive: -0.159
GCTTCCAC | inactive: -0.182
ACCAAACT | inactive: 0.024
ACCATGAA | inactive: 0.0242
GTGCATAA | inactive: 0.0622
GTGGTCCA | inactive: -0.00936
ATATATCA | inactive: 0.169
GCCCAAGA | inactive: -0.14
AAGATCCT | inactive: 0.0178
AATTGAGG | inactive: -0.075
ACAGATCT | inactive: 0.0481
AAGGTCGC | inactive: -0.147

Sequence | PBM E-score
CTATTCAG | inactive: 0.0806
AAGGCAAC | inactive: 0.0408
CAGATTTA | inactive: 0.096
ACGGGACA | inactive: 0.123
ACCGCCTC | inactive: -0.212
AAAGATAC | inactive: 0.0695
GCTGTAAC | inactive: 0.179
AATCACCC | inactive: 0.00243
AGAGGGGC | inactive: -0.337
AATAAATA | inactive: 0.202
CGCAGAGA | inactive: -0.0806
GGTGAAAA | inactive: -0.0222
GCTAGTCA | inactive: 0.0294
GTGGTGTA | inactive: 0.271
AGCGACTC | inactive: -0.0591
AGAAGCCG | inactive: -0.154
CCCAAGAG | inactive: -0.149
AGGGCACC | inactive: -0.242
TGAGTTAA | inactive: 0.0401
AATAAAGG | inactive: -0.11
AGCTCCTG | inactive: -0.118
ATGCAGTC | inactive: 0.0866
ACAACAAT | active: 0.347
GATCTCCC | inactive: -0.189
GGCGCTCA | inactive: -0.152

Sequence | PBM E-score
CTAACAGA | inactive: 0.0773
AGCTATTC | inactive: -0.0818
ACTTGGCT | inactive: -0.0889
CACCCGAG | inactive: -0.179
CCTATAAC | inactive: 0.0905
CCGAGTAC | inactive: -0.00195
GGCGGCGA | inactive: -0.175
AGAGCATC | inactive: 0.0055
GTACAATA | inactive: 0.306
TACGGCGA | inactive: 0.00232
CAGGGCAA | inactive: -0.0283
AGTCAACA | inactive: 0.263
ACTCCCTG | inactive: -0.0389
GGGGGCAA | inactive: -0.254
CAGACCTC | inactive: -0.196
AAGTCGTA | ≥ 0.108
ATATATCG | inactive: 0.0746
TGAATACA | inactive: 0.211
AAAAGTCT | inactive: -0.00119
AACGTAAC | inactive: 0.171
CATCAAGA | inactive: 0.0686
AGCGACAG | inactive: 0.105
AGCATGGA | inactive: 0.0568
CAAAATAG | inactive: -0.0389
GTCTACTA | inactive: 0.138

Sequence | PBM E-score
ACAACGGC | inactive: 0.0872
ATGATGAG | inactive: 0.0566
CGCACCCA | inactive: -0.106
CAGCACGC | inactive: -0.0923
CATGCGGA | inactive: -0.166
CCAGGATA | inactive: 0.0505
ACACACAG | inactive: 0.142
AGTGCACC | inactive: -0.0525
AAGGCGGA | inactive: -0.159
GTAGTTGA | inactive: 0.104
CGTCGACG | inactive: -0.16
AAGGGAGG | inactive: -0.134
AGTGCATC | inactive: 0.024
ACAACCCA | inactive: 0.208
AAATGACG | inactive: 0.171
CGAGGTAG | inactive: -0.114
CTCAACGC | inactive: -0.184
AACCTGAG | inactive: -0.0934
GCACCTCA | inactive: -0.00871
CATCTTAA | inactive: 0.0716
CGCTTCAG | inactive: -0.124
CCCACGGC | inactive: -0.284
ATGCACGG | inactive: -0.0563
CCCAAACG | inactive: -0.0329
GAAAGAGC | inactive: -0.123

Sequence | PBM E-score
AGGGTCTA | inactive: -0.154
GAATATGA | inactive: 0.0203
GCAGGCCA | inactive: -0.136
CTTTTACA | inactive: 0.255
ACATGAGG | inactive: 0.228
CATTAGTC | inactive: 0.00044
ACCGTTGG | inactive: 0.00243
ACGGCGCA | ≥ -0.079
GGTGTAAC | inactive: 0.205
CGAAAGAC | inactive: -0.0666
ATTCAGCC | inactive: -0.121
ACGGGGTC | inactive: -0.189
ATCCCACA | inactive: -0.00373
CAAGGAAG | inactive: 0.0116
GAGATACC | inactive: 0.00712
ATCCCTTG | inactive: -0.0111
GTAGGGCA | inactive: -0.058
TGAGTGAA | inactive: -0.0013
GATGTCCA | inactive: 0.195
GCCGGACC | inactive: -0.294
CTTGTATC | active: 0.34
CACCTCAC | inactive: 0.021
ATCAGAAG | inactive: -0.0272

Reference: the supplement of paper PMC3724861
